Results on 110 sequences are retold here after the supplement of paper PMC3334620.

In all, about 33,000 sequences were measured (“E-score (-0.5 to 0.5)”: median about -0.04, highest 2% from about 0.36 on). This is one part of the list.

The test deals with T1, Hmlalpha2 (UniProt P0CY09).
T1 sequence: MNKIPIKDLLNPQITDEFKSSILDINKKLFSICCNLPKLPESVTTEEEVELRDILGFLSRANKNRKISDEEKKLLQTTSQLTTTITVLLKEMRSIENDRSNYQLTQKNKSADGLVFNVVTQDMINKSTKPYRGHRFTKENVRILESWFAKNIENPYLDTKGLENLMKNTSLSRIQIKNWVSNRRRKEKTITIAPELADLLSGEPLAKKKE
Kind of test: PBM E-score (8-mer binding enrichment) (E-score (-0.5 to 0.5)); higher = stronger / more preferred TF binding; most listed sequences are background and not binding sites. The conditions noted are these: protein concentration: 200 nM; construct: GST-full length. In a few lines: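 For each ungapped eight-base word taken together with its reverse complement, the Universal PBM Analysis Suite assigned an E-score. Binding data came from GST-tagged yeast transcription factors, applied at about 100-200 nM, on universal all-10-mer Agilent arrays made double-stranded by primer extension. Fluorescent anti-GST marked bound protein, and scans were normalised with masliner.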
Regarding ATGCCTCA, the “PBM E-score” value is 0.0436. As to CGGAGCAG, the “PBM E-score” value was -0.196. Consider CAGTGGAC, for which the “PBM E-score” value was -0.169. GCTGGCGA: the “PBM E-score” value is -0.212. The result for TAGTCGAA reads -0.0303. Regarding AGTACGAA, the “PBM E-score” value was 0.0588.

For the sequence TATATGCA, the “PBM E-score” value was 0.00434. The result for CGCCAGCA reads -0.0496; that for CAACAACA, 0.357.

With GTAGTAGA, the “PBM E-score” value is 0.175. In the case of CGCCGACC, the “PBM E-score” value was -0.274.

As for CCGCACCC, the “PBM E-score” value is -0.198. As for ACGCCCAG, the “PBM E-score” value stood at 0.0316. The result for CGAAGAGA reads -0.0982.

Regarding AGGCATCA, the “PBM E-score” value is -0.225.

Turning to TCAGATAA, the “PBM E-score” value was -0.00508. The result for AGATCGCA reads 0.0387.

Take AACAGTCC: the “PBM E-score” value is -0.322. For the sequence AGGAAGCG, the “PBM E-score” value was -0.1.

For the sequence GGCGGGCA, the “PBM E-score” value is -0.313.

Take ACGGACCT: the “PBM E-score” value is -0.116.

As to AGAAGGTG, the “PBM E-score” value is -0.113. The result for GGGGTAAA reads 0.0723; that for AGTAGGAG, -0.233; that for AGAAAGCT, 0.0559. The result for CCGCTAGA reads -0.254; that for CTGGATGA, -0.152.

For GGGACTGA, the “PBM E-score” value is -0.324.

For GCTGGGAC, the “PBM E-score” value was -0.263. As to ACACTCGG, the “PBM E-score” value was found to be 0.0952. The result for ATACACTG reads 0.235; that for GACATACC, 0.124; that for AATCCGTA, -0.0718. Take GCACCCTA: the “PBM E-score” value is -0.0932.

AATCTTTC: the “PBM E-score” value was -0.0768. As for GTATGAAC, the “PBM E-score” value worked out at 0.0608. As for AATCACTG, the “PBM E-score” value was 0.098.

Take GGTTATAC: the “PBM E-score” value came to 0.146.

For the sequence CACGTCTA, the “PBM E-score” value came out at 0.22.

Take CACTGCTC: the “PBM E-score” value is -0.156. The result for CGGTGCGC reads -0.279.

For AGGTCTGG, the “PBM E-score” value was -0.101. The result for AAGACACT reads 0.0877; that for ATGAGAAT, 0.108; that for CGCGAGCG, -0.193. The result for ATATACCC reads -0.0701; that for AGTTCTTA, -0.00952. As to CGCACGAG, the “PBM E-score” value is -0.134.

Consider CTATACAG, for which the “PBM E-score” value was 0.0549. The result for CACCAACC reads -0.105. For the sequence ACAATTAA, the “PBM E-score” value stood at 0.214. The result for ACAGTCAG reads -0.0101; that for CACACTGG, 0.0142.

Regarding CAATCAGA, the “PBM E-score” value was -0.154.

On to AGAAGCGA, for which the “PBM E-score” value was 0.0343.

As to CGTGTCGC, the “PBM E-score” value was 0.214. The result for AAACCATA reads 0.0906. For GAGCCATA, the “PBM E-score” value was -0.153. As to CCACGCGA, the “PBM E-score” value was -0.134. The result for AAGAGCAC reads 0.0584; that for AAGATGAG, -0.105.

On to GAGCTAGC, for which the “PBM E-score” value was -0.0256. The result for CCAAGGGG reads -0.225; that for GATAGTGA, -0.0711. The result for CTCGCTAC reads -0.181; that for CGGGAGTC, -0.258; that for CGTTAACA, 0.34.

For ATAACAGG, the “PBM E-score” value was 0.194.

With AATAACGT, the “PBM E-score” value is 0.299. With AACACTTA, the “PBM E-score” value is 0.275.

With CATGGATA, the “PBM E-score” value is 0.195. The result for GCGAAAAC reads -0.0286. Regarding ATCGCGAA, the “PBM E-score” value worked out at 0.0801. For CTGGGCGA, the “PBM E-score” value is -0.217.

AAGGCGAT: the “PBM E-score” value was -0.0245. The result for CGAGTTGC reads -0.0335. Consider ATCGACCG, for which the “PBM E-score” value was -0.223. The result for GCCTCACA reads -0.0267; that for CGAGAAGA, -0.174.

As for CGAAATCA, the “PBM E-score” value was found to be 0.0682.

Consider AAGTAACT, for which the “PBM E-score” value came to 0.115.

For the sequence ACTGTTAT, the “PBM E-score” value was determined as 0.105. As to ATCTGCAT, the “PBM E-score” value was -0.0336. The result for ACAAACGA reads 0.291; that for TCAGTGGA, -0.317. The result for CCAGCCGG reads -0.222; that for TGCACGAA, 0.122. The result for AGTGATAG reads -0.0114; that for TCAAAAAA, 0.0304. Regarding ATGAGTGA, the “PBM E-score” value was -0.114.

Consider TCAACCCA, for which the “PBM E-score” value was -0.0535.

Regarding AGGTAAGC, the “PBM E-score” value was -0.198. Take CTCGGCTC: the “PBM E-score” value is -0.201.

In the case of CAGAAGTA, the “PBM E-score” value is -0.0394. Regarding CATGGGGC, the “PBM E-score” value was 0.0176. The result for GCAGCCAA reads -0.0695; that for CACTGAGG, -0.126.

For GCTCTAAC, the “PBM E-score” value was -0.151. For CCAGAATC, the “PBM E-score” value is -0.0873.

Turning to ATTCTGAC, the “PBM E-score” value was -0.072.

With ATGTGAAG, the “PBM E-score” value was 0.338. On to CATCATTC, for which the “PBM E-score” value is -0.013. AATTGAAA: the “PBM E-score” value worked out at 0.0662. On to TGTAGTAA, for which the “PBM E-score” value was 0.311. The result for GATAATCA reads -0.0314; that for GTTAGACA, 0.231; that for GTCGAGTA, 0.195. The result for AACGCGAA reads 0.257; that for ACGCCGCC, -0.0262; that for AGTGAGTA, 0.218.
